Among the data in PubChem BioAssay (NCI) are GI50 and TGI values, retold here.

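Each compound was tested at five concentrations against cells in 96-well plates for 48 hours. The concentration for 50% growth inhibition is given as GI50. Definition used: TGI = concentration required for complete inhibition of growth.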

The experiment deals with NCI-H322M lung. The experiment in a line: NCI tumour cell line growth inhibition, 48 h.
`CC(=O)Oc1ccccc1C(=O)NC([Se])=NC1CCCCC1`: the GI50 was 2810 nM and the TGI was determined as 9000 nM.

Take `C=Cn1cc(C(=O)O)c(=O)c2cc(F)c(N3CCN(c4nccc(-c5nccs5)n4)CC3)cc21`: the GI50 is 66.7 nM and the TGI was determined as 2390 nM.

`COC(=O)c1c(C(=O)OC)c2n(c1C)[C@@H]([C@@H](C)[C@H]1CC[C@H]3[C@@H]4CCC5=CC(=O)CC[C@]5(C)[C@H]4CC[C@]13C)SC2`: the GI50 is above 100000 nM and the TGI was above 100000 nM.
